These results are taken from the supplement of paper PMC4723716.

Whole data set: some 3,600 compounds, median “viability index relative to DMSO control” near 0.81, cut for the lowest 2% near 0.13. Some of the results follow.
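Further: 384-well serum-free SaLSSA: MitoTracker Red CMXRos staining with saponin lysis, high-content imaging, treated-well particle count divided by plate-mean count of DMSO wells.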

For this assay, the system named is Plasmodium falciparum NF54 stage V gametocytes. Put plainly: viability index relative to DMSO control (fraction); higher = less gametocyte killing. To be noted: 1.25 µM, incubation time: 72 h.
Take `Cc1cc(NS(=O)(=O)c2ccc(NC(=O)c3ccc([N+](=O)[O-])cc3)cc2)no1`: the viability index worked out at 0.66. Under `COc1ccc(Nc2nc(NN=Cc3cc4c(cc3Br)OCO4)nc(Nc3ccc([N+](=O)[O-])cc3)n2)cc1` stands 1.03. The figure for `O=C(C1CC1)n1cc(C(=O)C(F)(F)F)c2ccccc21` is 0.865. For `CCOC(=O)C(=O)N1c2ccccc2-c2c(ssc2=S)C1(C)C`, the viability index worked out at 0.781. Under `CCOC(=O)C1=C(C)NC2=C(C(=O)CCC2)C1c1ccc([N+](=O)[O-])cc1` (configuration not stated) stands 0.971; under `CC(C)CN1C(=O)c2ccccc2C(C(=O)Nc2ccc(F)cc2F)C1c1cccs1` (configuration not stated), 0.61; under `Cc1c(Cl)cccc1NC(=O)c1cccnc1Cl`, 0.815. Compound `CCOC(=O)N1CCC(n2c(SCC(=O)N3CCCCCC3)nc3ccccc3c2=O)CC1` displayed a viability index of 0.892.

`CC1Cc2ccccc2N1C(=O)Cn1c(=O)oc2ccccc21` (configuration not stated) showed a viability index of 0.946.

`CC(=O)N1CCN(c2ccc(NC(=S)NC(=O)c3ccc(C)cc3)cc2)CC1`: the viability index was determined as 0.627. Under `Cc1nc(NN=Cc2c(O)ccc3ccccc23)cc(N2CCCCC2)n1` stands 0.507; under `CCOC(=O)c1cnc2c(C)cc(C)cc2c1Nc1ccc(OC)c(OC)c1`, 0.88; under `CC(C)N1CCC(N2CCN(Cc3ccc4c(c3)Cc3ccccc3-4)CC2CCO)CC1` (configuration not stated), 0.654. Turning to `CCOC(=O)C1=C(C)NC2=C(C(=O)CC(C)(C)C2)C1c1ccccn1` (configuration not stated), the viability index is 0.4.

The compound `O=C(CCl)Nc1ccc2c(c1)OCO2` registered a viability index of 0.656. Under `CCCC(C(=O)NCCC(C)C)N(C(=O)c1snc(C(N)=O)c1N)c1ccc(C(C)C)cc1` (configuration not stated) stands 0.92; under `CCN(CC)C(=O)c1cn(C2CCN(Cc3ccco3)CC2)nn1`, 0.962. The figure for `O=C(O)c1cccc(NC(=O)c2ccc(N3C(=O)c4ccc(C(=O)Nc5cccc(C(=O)O)c5)cc4C3=O)cc2)c1` is 1.09. In turn, `COc1ccc(-c2csc(Nc3ccc(O)cc3)n2)cc1OC` showed a viability index of 0.767. The figure for `C=CCNc1ncnc2c1c(-c1ccccc1)cn2-c1ccccc1` is 1.39; for `COc1cc(OC)c(N(C)S(=O)(=O)c2cccc(C(=O)OCC(=O)Nc3ccccc3C(C)=O)c2)cc1Cl` it is 0.356.

For the compound `Cc1c(C(=O)Nc2ccccc2)sc2ncn(Cc3ccccc3Cl)c(=O)c12`, the viability index was determined as 1.17. The figure for `Cc1ccccc1Oc1cc(NC(=O)c2cc3n(n2)C(C(F)(F)F)CC(c2ccccc2)N3)cc(Oc2ccccc2C)c1` (configuration not stated) is 0.81; for `CC(C)N(C)Cc1cc(-c2nc3ccccc3s2)ccc1O` it is 0.875; for `COc1cc(OC)cc(C(=O)NCc2n[nH]c(=S)n2-c2ccc(Br)cc2)c1` it is 0.366.

As to `COc1ccccc1N1CCN(C(=O)CCCCSc2nnc3c4cc(F)ccc4n(Cc4ccc(F)cc4)c3n2)CC1`, the viability index was determined as 0.19. For `Clc1ncnc2ncn(Cc3ccccc3)c12`, the viability index came to 0.714.

Regarding `CCCOc1ccc(C(=O)C2=C(O)C(=O)N(CCN3CCOCC3)C2c2ccc(F)cc2)c(C)c1` (configuration not stated), the viability index was found to be 1.05. As to `CCN1C(=S)NC2c3cc(C)ccc3OC13CCCC23` (configuration not stated), the viability index is 0.59. Under `COC(=O)[C@@H]1C[C@@H](NC(=O)c2ccc(OC)cc2OC)CN1Cc1cc(C)ccc1C` stands 0.865.

`COc1ccc(-c2c[n+](CC(=O)c3ccc(C)cc3)c3n2CCC3)cc1` gave a viability index of 0.928.

For the compound `O=C(Nc1ccc(-c2nc3ccccc3[nH]2)cc1)c1ccc(-c2ccc(Cl)cc2)o1`, the viability index stood at 0.725.

Compound `COc1ccc2c(c1OC)C(=O)N1c3ccccc3N=C(c3ccc(I)cc3)CC21` (configuration not stated) showed a viability index of 0.459.

Turning to `CC[n+]1c(C=C2C=C(C)OC(C)=C2)sc2ccccc21`, the viability index came out at 0.778. Under `O=[N+]([O-])c1cccc(C(Nc2nccs2)c2ccc3cccnc3c2O)c1` (configuration not stated) stands 0.603. On to `CCOC(=O)c1cnc2ccc(OC)cc2c1Cl`, for which the viability index worked out at 0.494. The compound `S=C(NC1CCCCC1)NC1CC2CCC(C1)N2Cc1ccccc1` (configuration not stated) returned a viability index of 1.03. Under `COC(=O)C1=C(C)NC2=C(C(=O)CC(c3ccc(OC)c(OC)c3)C2)C1c1ccc(Cl)cc1Cl` (configuration not stated) stands 0.888; under `COc1cccc(-n2sc3c(c2=S)-c2cc(OC)ccc2NC3(C)C)c1`, 0.693. The figure for `COc1ccc(C2CC(=O)C3=C(C2)NC(C)=C(C(=O)OC2CCCC2)C3c2ccc(Cl)cc2Cl)cc1` (configuration not stated) is 0.755; for `CCOC(=O)C1=C(C)NC2=C(C(=O)C(C(=O)OCC)C(c3ccc(OC)cc3)C2)C1c1ccc([N+](=O)[O-])cc1` (configuration not stated) it is 0.286; for `O=C(CCCCCN1C(=O)c2cccc3cccc(c23)C1=O)NO` it is 0.853. The figure for `Cc1cc(Br)cc(Cl)c1OC(=O)c1ccno1` is 0.95. `CC(C)(C)C(=O)NCCNc1ccc([N+](=O)[O-])cc1C(F)(F)F` displayed a viability index of 0.935.

As for `COc1ccc2c(c1)C(C)(CC#N)C(=O)N2C` (configuration not stated), the viability index came out at 0.793. Under `Cc1ccc(NC(=O)c2sc3nc4c(c(-c5cccs5)c3c2N)CCCC4)cc1` stands 1.17; under `CCOc1ccc(N(C(C)=O)C2=C(N3CCN(C)CC3)C(=O)c3ccccc3C2=O)cc1`, 0.49; under `CN(C)CCCNc1cc(-c2ccccc2)nc2ccccc12`, 0.913. On to `CCN1CCN(c2cc(C)c3cc(NC(=O)C=Cc4ccccc4Cl)ccc3n2)CC1`, for which the viability index was determined as 0.714. Under `COCCCNC(=O)C=Cc1ccc(C(C)C)cc1` stands 0.976; under `COC(=O)CNC(c1ccccc1Cl)c1cc(Br)ccc1NS(=O)(=O)c1ccc(C)cc1` (configuration not stated), 0.736. `CCc1ccc2c(c1)C1(NN=C(c3ccc(C)cc3)S1)C(=O)N2` (configuration not stated) had a viability index of 0.127. Under `CCOC(=O)C1=C(C)N=c2sc(=Cc3cccc(OCc4cccc5ccccc45)c3)c(=O)n2C1c1ccc(OC)cc1OC` (configuration not stated) stands 0.924. The figure for `Cc1ccc(C(=O)NCCNC(=O)CN2CCOCC2)cc1` is 1.12; for `CCC(C)NC(=O)c1c[nH]c2ccc(S(=O)(=O)N(C)c3cc(C)ccc3C)cc2c1=O` (configuration not stated) it is 0.913; for `CCOC(=O)c1cc(-c2ccccc2)n(CCC(=O)Nc2ccccc2N2CCN(C)CC2)c1C` it is 0.996. In the case of `Cc1ccc(-c2nc3cc(NC(=O)c4ccc([N+](=O)[O-])o4)ccc3o2)cc1Br`, the viability index worked out at 0.0755.
